Assay results from article PMC12820563.
Some of the results follow. The list includes weakly bound sequences.

The sequences below were run against T1, MBP-FoxP3dN (UniProt Q99JB6) (assay: PD-seq (MBP pull-down with sequencing)). Details: 20 mM Tris-HCl pH 7.5, 100 mM NaCl, 1.5 mM MgCl2, 0.4 uM protein, 0.1 uM dsDNA library, 30 min, room temperature, amylose pull-down; high values mean tight binding; double strand, one strand shown.
T1 sequence: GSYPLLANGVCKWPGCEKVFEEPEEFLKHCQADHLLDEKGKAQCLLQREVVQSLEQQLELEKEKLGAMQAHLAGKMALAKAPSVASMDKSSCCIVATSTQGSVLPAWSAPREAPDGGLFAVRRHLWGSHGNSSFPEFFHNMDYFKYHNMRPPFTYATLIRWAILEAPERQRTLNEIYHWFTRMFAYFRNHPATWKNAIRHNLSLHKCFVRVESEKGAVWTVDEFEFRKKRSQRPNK
For “GATGATTGTTCTCCCAGCTGATGAATTCAGGAGTTCGAGTAAACAAATTTTCCTAATCTTTCTGTTCAAGCGCCATCTAC”, the binding signal (RPM ratio (pull-down/input)) was 0.341.
Work on “GATGATTGTTCTCCCAGCTGATGAATTCCCACAATCGAGTAAACAAATTTTCCTAATCTTTCTGTTCAAGCGCCATCTAC” yielded a binding signal (RPM ratio (pull-down/input)) of 0.317.
With “GATGATTGTTCTCCCAGCTGATGAATTTCTGAGTTCGAGTAAACAAATTTTCCTAATCTTTCTGTTCAAGCGCCATCTAC” the binding signal (RPM ratio (pull-down/input)) was 0.388.
In the case of “GATGATTGTTCTCCCAGCTGATGAATTCCTGTCGTCGAGTAAACAAATTTTCCTAATCTTTCTGTTCAAGCGCCATCTAC”, the binding signal (RPM ratio (pull-down/input)) is reported as 0.358.
For “GATGATTGTTCTCCCAGCTGATGAATTGCCCCAATCGAGTAAACAAATTTTCCTAATCTTTCTGTTCAAGCGCCATCTAC”, the binding signal (RPM ratio (pull-down/input)) was 0.554.
For “GATGATTGTTCTCCCAGCTGATGAATTCGGTTTTTCGAGTAAACAAATTTTCCTAATCTTTCTGTTCAAGCGCCATCTAC”, the binding signal (RPM ratio (pull-down/input)) was 1.58.
“GATGATTGTTCTCCCAGCTGATGAATTTGAATAGTCGAGTAAACAAATTTTCCTAATCTTTCTGTTCAAGCGCCATCTAC” gave a binding signal (RPM ratio (pull-down/input)) of 0.527.
With “GATGATTGTTCTCCCAGCTGATGAATTCCACCCATCGAGTAAACAAATTTTCCTAATCTTTCTGTTCAAGCGCCATCTAC” the binding signal (RPM ratio (pull-down/input)) was 0.349.
With “GATGATTGTTCTCCCAGCTGATGAATTTCACGCGTCGAGTAAACAAATTTTCCTAATCTTTCTGTTCAAGCGCCATCTAC” the binding signal (RPM ratio (pull-down/input)) was 0.675.
“GATGATTGTTCTCCCAGCTGATGAATTCATCACGTCGAGTAAACAAATTTTCCTAATCTTTCTGTTCAAGCGCCATCTAC” was tested, and the binding signal (RPM ratio (pull-down/input)) was 1.07.
“GATGATTGTTCTCCCAGCTGATGAATTTGGATCTTCGAGTAAACAAATTTTCCTAATCTTTCTGTTCAAGCGCCATCTAC” showed a binding signal (RPM ratio (pull-down/input)) of 0.417.
“GATGATTGTTCTCCCAGCTGATGAATTACTCGTATCGAGTAAACAAATTTTCCTAATCTTTCTGTTCAAGCGCCATCTAC” gave a binding signal (RPM ratio (pull-down/input)) of 0.46.
“GATGATTGTTCTCCCAGCTGATGAATTGGGCCTTTCGAGTAAACAAATTTTCCTAATCTTTCTGTTCAAGCGCCATCTAC” was tested, and the binding signal (RPM ratio (pull-down/input)) was 3.74.
“GATGATTGTTCTCCCAGCTGATGAATTCAGCGGATCGAGTAAACAAATTTTCCTAATCTTTCTGTTCAAGCGCCATCTAC” gave a binding signal (RPM ratio (pull-down/input)) of 0.264.
“GATGATTGTTCTCCCAGCTGATGAATTTGAATGGTCGAGTAAACAAATTTTCCTAATCTTTCTGTTCAAGCGCCATCTAC” gave a binding signal (RPM ratio (pull-down/input)) of 1.08.
Work on “GATGATTGTTCTCCCAGCTGATGAATTTGTACGGTCGAGTAAACAAATTTTCCTAATCTTTCTGTTCAAGCGCCATCTAC” yielded a binding signal (RPM ratio (pull-down/input)) of 1.76.
Sequence “GATGATTGTTCTCCCAGCTGATGAATTGCAGGACTCGAGTAAACAAATTTTCCTAATCTTTCTGTTCAAGCGCCATCTAC” has a binding signal (RPM ratio (pull-down/input)) of 0.489.
For “GATGATTGTTCTCCCAGCTGATGAATTCTTCGCTTCGAGTAAACAAATTTTCCTAATCTTTCTGTTCAAGCGCCATCTAC”, the binding signal (RPM ratio (pull-down/input)) was 0.256.
In the case of “GATGATTGTTCTCCCAGCTGATGAATTTGATAGCTCGAGTAAACAAATTTTCCTAATCTTTCTGTTCAAGCGCCATCTAC”, the binding signal (RPM ratio (pull-down/input)) is reported as 1.98.
In the case of “GATGATTGTTCTCCCAGCTGATGAATTTGCTTGGTCGAGTAAACAAATTTTCCTAATCTTTCTGTTCAAGCGCCATCTAC”, the binding signal (RPM ratio (pull-down/input)) is reported as 5.74.
With “GATGATTGTTCTCCCAGCTGATGAATTCCACGGCTCGAGTAAACAAATTTTCCTAATCTTTCTGTTCAAGCGCCATCTAC” the binding signal (RPM ratio (pull-down/input)) was 0.22.
Work on “GATGATTGTTCTCCCAGCTGATGAATTGGAGGTATCGAGTAAACAAATTTTCCTAATCTTTCTGTTCAAGCGCCATCTAC” yielded a binding signal (RPM ratio (pull-down/input)) of 0.497.
In the case of “GATGATTGTTCTCCCAGCTGATGAATTGGACCACTCGAGTAAACAAATTTTCCTAATCTTTCTGTTCAAGCGCCATCTAC”, the binding signal (RPM ratio (pull-down/input)) is reported as 0.382.
Work on “GATGATTGTTCTCCCAGCTGATGAATTTGGAGCATCGAGTAAACAAATTTTCCTAATCTTTCTGTTCAAGCGCCATCTAC” yielded a binding signal (RPM ratio (pull-down/input)) of 0.753.
“GATGATTGTTCTCCCAGCTGATGAATTGTTGGGTTCGAGTAAACAAATTTTCCTAATCTTTCTGTTCAAGCGCCATCTAC” was tested, and the binding signal (RPM ratio (pull-down/input)) was 1.91.
“GATGATTGTTCTCCCAGCTGATGAATTTCGCCCCTCGAGTAAACAAATTTTCCTAATCTTTCTGTTCAAGCGCCATCTAC” showed a binding signal (RPM ratio (pull-down/input)) of 1.99.
With “GATGATTGTTCTCCCAGCTGATGAATTTGGGCACTCGAGTAAACAAATTTTCCTAATCTTTCTGTTCAAGCGCCATCTAC” the binding signal (RPM ratio (pull-down/input)) was 0.562.
Sequence “GATGATTGTTCTCCCAGCTGATGAATTCGTCGCCTCGAGTAAACAAATTTTCCTAATCTTTCTGTTCAAGCGCCATCTAC” has a binding signal (RPM ratio (pull-down/input)) of 0.691.
In the case of “GATGATTGTTCTCCCAGCTGATGAATTAGCAGGTTCGAGTAAACAAATTTTCCTAATCTTTCTGTTCAAGCGCCATCTAC”, the binding signal (RPM ratio (pull-down/input)) is reported as 0.332.
Work on “GATGATTGTTCTCCCAGCTGATGAATTCGATAGCTCGAGTAAACAAATTTTCCTAATCTTTCTGTTCAAGCGCCATCTAC” yielded a binding signal (RPM ratio (pull-down/input)) of 0.887.
“GATGATTGTTCTCCCAGCTGATGAATTATGAAAATCGAGTAAACAAATTTTCCTAATCTTTCTGTTCAAGCGCCATCTAC” showed a binding signal (RPM ratio (pull-down/input)) of 0.243.
Work on “GATGATTGTTCTCCCAGCTGATGAATTCATGCTTTCGAGTAAACAAATTTTCCTAATCTTTCTGTTCAAGCGCCATCTAC” yielded a binding signal (RPM ratio (pull-down/input)) of 0.987.
